# Laboratory results reported in patent US12016334B2, “Composition comprising sulphated galactose, and implementations thereof” (priority 2018, dated 2024).
# Tested on: PR1, PDF1.2 and VSP2 genes
# Experiment: qPCR of defense marker genes in Arabidopsis after spray
# Conditions: Gal-S spray 8 mg/L compared to Gal-S-L1 2 ml/L (Gal-S 28 mg/L)
smiles,measurement,value
"O=C[C@H](O)[C@@H](O)[C@@H](OS(=O)(=O)O)[C@H](O)CO [Gal-S, D-galactose-4-O-sulphate]",relative expression of immune genes PDF1.2 and VSP2,significantly lower
